Data as given in PubChem BioAssay AID504333 (National Center for Advancing Translational Sciences (NCATS), 2011).
Values joined by “and” are separate entries in the source; they are usually repeats but may differ in a detail not shown here. Equal entries are not always repeated. Among all 360,000 compounds or so, about 16,000 (4.4%) were called active. This list was built around the results that the source calls inconclusive (neither active nor inactive); the mix of calls is not that of the screen. Calls come from the whole dose curve; as a rule, active = well fitted inhibition curve with a large enough effect; inconclusive = small, poorly fitted or top-dose-only effect; inactive = no such curve, though single readings can be large or run the other way. Potencies of inconclusive entries are doubtful fits and often do not repeat.
% is set by controls: 0 for no effect and ±100 for the full control effect; potency is the fitted concentration of half-maximal effect; tags give direction and shape of the fitted curve.
Note: nearly all actives have a fitted effect of over 60% in size.

Each molecule was assayed against Bromodomain adjacent to zinc finger domain protein 2B (Homo sapiens) (UniProt Q9UIF8) (assay: qHTS Assay for Inhibitors of BAZ2B). Details: AlphaScreen BAZ2B-H3K14Ac peptide displacement; activity change, negative = inhibition: at 114 µM (top of the series) unless noted.
Chain of UniProt Q9UIF8 (Q9UIF8 whole entry, looked up, the tested form may be a part): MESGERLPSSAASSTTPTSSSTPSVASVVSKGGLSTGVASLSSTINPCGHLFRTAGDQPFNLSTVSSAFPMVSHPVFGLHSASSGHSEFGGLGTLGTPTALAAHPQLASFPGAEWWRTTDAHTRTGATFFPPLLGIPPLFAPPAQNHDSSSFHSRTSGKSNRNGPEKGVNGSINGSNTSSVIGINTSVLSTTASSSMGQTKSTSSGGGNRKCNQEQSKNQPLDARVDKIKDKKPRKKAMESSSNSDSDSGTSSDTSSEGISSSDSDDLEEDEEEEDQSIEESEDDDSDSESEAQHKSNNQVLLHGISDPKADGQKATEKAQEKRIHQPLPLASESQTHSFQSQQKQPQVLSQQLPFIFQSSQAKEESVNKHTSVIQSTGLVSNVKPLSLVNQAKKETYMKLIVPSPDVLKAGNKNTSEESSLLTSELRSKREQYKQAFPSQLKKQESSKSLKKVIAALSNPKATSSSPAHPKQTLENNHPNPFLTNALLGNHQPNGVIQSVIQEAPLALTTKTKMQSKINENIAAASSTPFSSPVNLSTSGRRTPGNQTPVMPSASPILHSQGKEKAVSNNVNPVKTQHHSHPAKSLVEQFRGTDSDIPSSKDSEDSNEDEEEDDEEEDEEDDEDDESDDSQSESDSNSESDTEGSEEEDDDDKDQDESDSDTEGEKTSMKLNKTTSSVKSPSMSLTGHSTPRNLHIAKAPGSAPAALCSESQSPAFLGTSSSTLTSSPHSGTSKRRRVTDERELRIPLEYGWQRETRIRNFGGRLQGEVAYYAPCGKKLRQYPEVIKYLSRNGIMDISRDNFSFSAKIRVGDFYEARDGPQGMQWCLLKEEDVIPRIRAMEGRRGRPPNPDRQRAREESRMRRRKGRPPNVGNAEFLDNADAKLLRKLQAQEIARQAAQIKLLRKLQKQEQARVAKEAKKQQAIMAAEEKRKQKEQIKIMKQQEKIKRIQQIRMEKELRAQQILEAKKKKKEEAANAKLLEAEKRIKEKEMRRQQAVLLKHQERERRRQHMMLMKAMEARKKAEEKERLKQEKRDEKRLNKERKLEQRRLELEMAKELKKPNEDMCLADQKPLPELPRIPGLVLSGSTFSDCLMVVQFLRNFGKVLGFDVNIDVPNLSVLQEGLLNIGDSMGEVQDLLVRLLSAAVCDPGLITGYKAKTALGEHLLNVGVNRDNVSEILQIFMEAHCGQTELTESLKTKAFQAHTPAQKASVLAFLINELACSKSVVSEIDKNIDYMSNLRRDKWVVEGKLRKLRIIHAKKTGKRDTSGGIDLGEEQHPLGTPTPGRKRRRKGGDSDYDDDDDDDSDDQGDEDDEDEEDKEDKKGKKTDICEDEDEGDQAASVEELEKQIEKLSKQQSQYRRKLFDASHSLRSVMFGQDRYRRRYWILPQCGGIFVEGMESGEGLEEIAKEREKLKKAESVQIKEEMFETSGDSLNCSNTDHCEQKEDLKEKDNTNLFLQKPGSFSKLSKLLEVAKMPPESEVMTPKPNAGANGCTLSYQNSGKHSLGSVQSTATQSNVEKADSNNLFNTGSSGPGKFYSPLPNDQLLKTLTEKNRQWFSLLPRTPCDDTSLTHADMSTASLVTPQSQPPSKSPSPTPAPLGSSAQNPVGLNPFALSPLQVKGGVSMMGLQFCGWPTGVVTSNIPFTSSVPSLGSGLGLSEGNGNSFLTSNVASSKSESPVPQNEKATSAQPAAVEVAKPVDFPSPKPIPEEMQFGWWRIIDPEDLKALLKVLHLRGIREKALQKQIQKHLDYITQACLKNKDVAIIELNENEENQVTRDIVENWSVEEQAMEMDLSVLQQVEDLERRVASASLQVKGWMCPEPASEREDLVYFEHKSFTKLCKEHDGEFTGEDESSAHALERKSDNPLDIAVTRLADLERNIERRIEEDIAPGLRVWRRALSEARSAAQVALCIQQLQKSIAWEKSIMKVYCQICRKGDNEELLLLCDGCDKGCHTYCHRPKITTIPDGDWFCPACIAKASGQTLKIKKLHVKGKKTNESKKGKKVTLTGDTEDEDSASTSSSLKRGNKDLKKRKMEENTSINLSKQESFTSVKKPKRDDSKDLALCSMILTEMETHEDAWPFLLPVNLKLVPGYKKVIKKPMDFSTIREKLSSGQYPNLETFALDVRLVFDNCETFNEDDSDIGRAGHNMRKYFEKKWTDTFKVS
In short: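 BAZ2B (50 nM) with biotin-H3(5-23)K14Ac peptide (50 nM) in PBS pH 7.4, 0.01% Tween-20, preformed 30 min, then compound 30 min at room temperature; top concentration 110uM. AlphaScreen streptavidin donor/nickel chelate acceptor beads (10 ug/mL final), 20 min dark, signal read.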
`CCCOc1ccc(/C=C/C(=O)Nc2sc(C)c(C)c2C(=O)OCC)cc1OC` was tested, and the “activity change, negative = inhibition” value was inactive: -9.19%.
With `Cc1cc(Oc2cc(NN3CCCCC3)c([N+](=O)[O-])cc2[N+](=O)[O-])c(C(=O)c2ccccc2)cc1Cl` the Potency was inconclusive: 7.94 µM [inhibitor, full curve].
With `CCOC(=O)C1(C)/C(=N/Nc2ccccc2OC)C(=O)C(=O)N1c1ccccc1` (centres undefined) the Potency was active: 39.8 µM.
For `COc1ccc(C2CC(c3ccc(Br)cc3)Nc3nc(N)nn32)cc1` (centres undefined), the Potency was inconclusive: 70.8 µM [inhibitor, single point].
In the case of `O=[N+]([O-])c1ccccc1/C=N/N1CCN(c2ccc(Cl)cc2)CC1`, the Potency is reported as active: 14.1 µM.
In the case of `COc1ccc(C)c2sc(NC(=O)c3ccc(S(=O)(=O)N4CCCCC4)cc3)nc12`, the “activity change, negative = inhibition” value is reported as inactive: 1.46%.
With `O=C(Nc1ccccc1F)N1CCc2ccccc2C1` the “activity change, negative = inhibition” value was inactive: -4.29%.
With `c1ccc(C2CSc3ccccc3N2)cc1` (centres undefined) the Potency was inconclusive: 44.7 µM [inhibitor, partial curve].
In the case of `O=[N+]([O-])C(=c1ccc2c(c1)N1C3=C(CCCC3)CC3CCCCC31N=2)[N+](=O)[O-]` (centres undefined), the Potency is reported as active: 44.7 µM.
With `COc1cc(C(=S)N2CCOCC2)ccc1OC(=O)c1ccccc1C` the Potency was inconclusive: 89.1 µM [inhibitor, single point].
For `CCOc1ccc(NC(=O)/C=C/c2ccccc2)c([N+](=O)[O-])c1`, the “activity change, negative = inhibition” value was inactive: -30.1%.
With `Cc1ccc(C(=O)N/N=C/c2ccc([N+](=O)[O-])s2)cc1` the Potency was inconclusive: 79.4 µM [inhibitor, single point].
For `CC(=O)OCC1=C(C(=O)O)N2C(=O)C(NC(=O)C(C)Cn3nc(C)c(Cl)c3C)C2SC1` (centres undefined), the Potency was active: 56.2 µM.
In the case of `COc1ccc(NC(=O)c2ccc(CN3C(=O)CCn4nc(C)cc43)cc2)c(OC)c1`, the “activity change, negative = inhibition” value is reported as inactive: -13.2%.
`Oc1ccc(Cl)cc1C=Nc1ccc(Br)cc1` was tested, and the “activity change, negative = inhibition” value was inactive: 9.26%.
In the case of `CCOC(=O)COn1c(=O)c(-c2ccco2)[n+]([O-])c2ccccc21`, the Potency is reported as inconclusive: 79.4 µM [inhibitor, single point].
In the case of `CCOc1ccccc1C1C(C(N)=O)=C(C)Nc2nc(-c3cccc(C)c3)nn21` (centres undefined), the Potency is reported as inconclusive: 70.8 µM [inhibitor, single point].
With `CC(C)(C)c1ccc(OCc2ccc(C(=O)N/N=C/c3ccc(O)c(O)c3)cc2)cc1` the Potency was active: 31.6 µM.
With `CCN1CCn2c3c(c4cc(C)ccc42)CCCC31` (centres undefined) the Potency was inconclusive: 50.1 µM [inhibitor, partial curve].
For `COc1ccc(-n2c(SCC(=O)NCc3cccs3)nnc2-c2ccoc2C)cc1`, the Potency was inconclusive: 89.1 µM [inhibitor, single point].
With `Nc1nnc(SCC(=O)c2ccc3ccccc3c2)s1` the Potency was inconclusive: 39.8 µM [inhibitor, single point].
In the case of `O=C(OCC(=O)c1ccc(Cl)cc1Cl)c1cnccn1`, the “activity change, negative = inhibition” value is reported as inactive: -4.62%.
With `CC(C)(C)c1ccccc1OCCOCCNCc1ccccc1` the Potency was active: 79.4 µM.
`COc1ccc(OCc2ccc(-c3nc(C#N)c(N4CCN(C)CC4)o3)o2)cc1` was tested, and the Potency was active: 31.6 µM.
For `COc1ccccc1CNC(=O)Cc1c(C)c2c(cc(C)c3c(C)c(C)oc32)oc1=O`, the “activity change, negative = inhibition” value was inactive: -12.5%.
`CCC(c1nnnn1Cc1ccco1)N(Cc1cc2cc(C)cc(C)c2[nH]c1=O)CC1CCCO1` (centres undefined) was tested, and the Potency was inconclusive: 89.1 µM [inhibitor, single point].
In the case of `COc1ccc(Cl)cc1-n1c(C)cc(C(=O)OCC(=O)N2CC(=O)Nc3ccccc32)c1C`, the Potency is reported as inconclusive: 70.8 µM [inhibitor, single point].
In the case of `CCOC(=O)c1c(C)[nH]c(C)c1C(=O)COC(=O)c1ccc(Cl)c(S(=O)(=O)NCc2ccccc2)c1`, the Potency is reported as inconclusive: 100 µM [inhibitor, single point].
`Cc1nn(-c2ccccc2)c(N)c1Sc1cccc([N+](=O)[O-])c1` was tested, and the Potency was inconclusive: 89.1 µM [inhibitor, single point].
`Cc1nnc(SCc2ccccc2)n1CC1CCCO1` (centres undefined) was tested, and the Potency was inconclusive: 6.31 µM [inhibitor, full curve].
For `COCCCN(Cc1ccco1)C(=O)c1cc2c(s1)-c1ccccc1OC2`, the “activity change, negative = inhibition” value was inactive: 89%.
In the case of `CCOC(=O)c1sc(Nc2cccc(C)c2C)nc1C`, the Potency is reported as inconclusive: 79.4 µM [inhibitor, single point].
In the case of `Cc1cc(C)c(OCC(=O)NCC2CCCO2)c(C)c1` (centres undefined), the “activity change, negative = inhibition” value is reported as inactive: -12.7%.
In the case of `CO/N=C/c1ccc(Oc2ccc(C)cc2)c([N+](=O)[O-])c1`, the “activity change, negative = inhibition” value is reported as inactive: 2.1%.
With `COc1ccc(-c2ccc3ccccc3n2)cc1` the “activity change, negative = inhibition” value was inactive: -7.63%.
For `COC(=O)c1ccc(-n2c(C)cc(/C=N/n3cnnc3)c2C)cc1`, the Potency was inconclusive: 70.8 µM [inhibitor, single point].
With `COc1ccc(-c2nc(SCC(=O)NC3CCCC3)c(-c3ccc(OC)cc3)[nH]2)cc1` the Potency was inconclusive: 39.8 µM [inhibitor, partial curve] and inconclusive: 44.7 µM [inhibitor, partial curve].
With `CCN(CCCNC(=O)c1c(C)cc(=O)oc1C)c1cccc(C)c1` the Potency was inconclusive: 89.1 µM [inhibitor, single point].
With `Cc1ccc(C2C=C(c3ccccc3)Nc3nc(N4C(=O)CCC4=O)nn32)cc1` (centres undefined) the Potency was active: 50.1 µM.
In the case of `C/C(O)=C(/C=Nc1ccccc1)C(=O)Nc1ccccc1`, the “activity change, negative = inhibition” value is reported as inactive: 0.759%.
For `COc1ccc(C(=S)N2CCOCC2)cc1OC(=O)c1ccc([N+](=O)[O-])cc1[N+](=O)[O-]`, the Potency was inconclusive: 25.1 µM [inhibitor, full curve].
With `CCOCCCNCC(=O)Nc1ccccc1N1CCOCC1` the Potency was active: 35.5 µM.
`Cn1cccc1-c1cc(C(=O)N/N=C/c2ccc(Cl)cc2)[nH]n1` was tested, and the Potency was active: 50.1 µM.
In the case of `CC(C)c1ccccc1NC(=O)CNCCOc1ccccc1F`, the Potency is reported as active: 50.1 µM.
With `COC(=O)[C@@]1(Cc2ccc(F)cc2)[C@H]2c3cc(C(=O)N(C)C)n(Cc4c(CO)[nH]cc(C)c4=O)c3C[C@H]2CN1C(=O)c1ccccc1` the Potency was inconclusive: 79.4 µM [inhibitor, single point].
`Cc1cccc(C)c1NC(=O)CN1C(=O)CCSc2ccc(S(=O)(=O)N3CCCC3)cc21` was tested, and the Potency was “inactive”.
With `O=C(C1CCCO1)N1CCN(c2ccc(F)cc2)CC1` (centres undefined) the “activity change, negative = inhibition” value was inactive: -1.89%.
`Cc1ccc(C(=O)NCCc2c[nH]c3ccccc23)c(C)c1` was tested, and the Potency was active: 50.1 µM.
For `O=C(COc1ccccc1)Nc1sc2c(c1C(=O)Nc1ccccc1Cl)CCCCC2`, the “activity change, negative = inhibition” value was inactive: -14.3%.
`C=C(C)CNC(=S)Nc1cccc(N)n1` was tested, and the Potency was inconclusive: 79.4 µM [inhibitor, single point].
In the case of `Cc1cc(C)nc(SCc2cc(=O)c(OC(=O)c3ccc(Cl)c([N+](=O)[O-])c3)co2)n1`, the Potency is reported as inconclusive: 56.2 µM [inhibitor, partial curve].
In the case of `COC(=O)CSc1ncnc2c1sc1nc(-c3ccco3)c3c(c12)CC(C)(C)OC3`, the Potency is reported as active: 50.1 µM.
With `COc1ccc(NC2CCCN(C(=O)CN3C(=O)c4ccccc4C3=O)C2)cc1OC` (centres undefined) the “activity change, negative = inhibition” value was inactive: -24.8%.
In the case of `CCOc1ccc(NC(=O)CSc2nnc(CNC(=O)c3ccco3)o2)cc1`, the “activity change, negative = inhibition” value is reported as inactive: -2.95%.
With `CCC(C)NCCOCCOc1ccc(Cl)cc1Br` (centres undefined) the “activity change, negative = inhibition” value was inactive: -21.7%.
For `COc1ccc(/C=N/NC(=O)c2ccc(O)cc2)cc1CN1CCCc2ccccc21`, the Potency was inconclusive: 35.5 µM [inhibitor, full curve].
In the case of `COc1ccc2c(c1)n([O-])c1c([n+]2=O)CCC1`, the Potency is reported as inconclusive: 89.1 µM [inhibitor, single point].
`Cc1cc(Cl)cc(Br)c1OCCNCC(C)O` (centres undefined) was tested, and the “activity change, negative = inhibition” value was inactive: -3.34%.
For `O=C(COc1nsnc1N1CCOCC1)Nc1ccc(Cl)cc1`, the Potency was inconclusive: 70.8 µM [inhibitor, single point].
For `COc1ccc(-n2cnnc2SCC(=O)Nc2ccccc2F)cc1`, the “activity change, negative = inhibition” value was inactive: 2.68%.
For `CN1/C(=C/C(=O)CSc2ccccc2C(=O)O)C(C)(C)c2ccccc21`, the Potency was inconclusive: 89.1 µM [inhibitor, partial curve].
`COc1cc(C(CCN2CCN(c3ccccc3)CC2)c2c(OC)cc(OC)c3ccc(=O)oc23)cc(OC)c1OC` (centres undefined) was tested, and the Potency was inconclusive: 44.7 µM [inhibitor, partial curve].
With `Cc1ccc(S(=O)(=O)/N=C2/NC(=O)/C(=C/c3ccc(Br)o3)S2)cc1` the Potency was inconclusive: 50.1 µM [inhibitor, partial curve].
With `Cc1ccn2cc(-c3cccc(NC(=O)c4ccccc4)c3)nc2c1` the Potency was inconclusive: 89.1 µM [inhibitor, single point].
In the case of `CC(NS(=O)(=O)c1ccc(Cl)c(Cl)c1)C(=O)OCC(=O)Nc1ccc2c(c1)OCO2` (centres undefined), the Potency is reported as inconclusive: 79.4 µM [inhibitor, single point].
With `CCn1ncc(CNC(=O)C2(C)CC2(Cl)Cl)c1C` (centres undefined) the Potency was inconclusive: 89.1 µM [inhibitor, partial curve].
In the case of `Cc1ccc(-c2c(CN3CCN(c4cc(C)ccc4C)CC3)csc2C)cc1`, the Potency is reported as inconclusive: 89.1 µM [inhibitor, single point].
In the case of `CC(=O)OCC1=C(C(=O)O)N2C(=O)C(NC(=O)c3ccc(F)cc3)C2SC1` (centres undefined), the Potency is reported as inconclusive: 89.1 µM [inhibitor, single point].
With `O=C(O)C1C2C=CC(O2)C1C(=O)NCCC1=CCCCC1` (centres undefined) the “activity change, negative = inhibition” value was inactive: 2.73%.
For `COc1cccc(-n2c(C)nnc2SCC#N)c1`, the Potency was inconclusive: 89.1 µM [inhibitor, single point].
In the case of `CCOC(=O)c1c(NC(=O)CSc2nnc3ccccn23)sc2c1CCC2`, the Potency is reported as inconclusive: 70.8 µM [inhibitor, single point].
For `Cn1c(=O)n(C)c2cc(NS(=O)(=O)c3ccc(F)cc3)c(NCc3ccccc3)cc21`, the “activity change, negative = inhibition” value was inactive: -37%.
With `CCc1nnc(NC(=O)CN2C(=O)c3ccccc3S2(=O)=O)s1` the “activity change, negative = inhibition” value was inactive: -5.39%.
For `Cc1ccc(NC(=O)c2cc(-c3ccc(C)o3)nc3ccccc23)nc1`, the Potency was inconclusive: 79.4 µM [inhibitor, single point].
